Out of some 44,000 compounds screened, about 340 (0.77%) were called active. Another 5% or so got no clear call; they are omitted. The call rests on the fitted dose curve; in most records, active means well fitted inhibition curve with a large enough effect; inconclusive means small, poorly fitted or top-dose-only effect; inactive means flat fitted curve, though single readings scatter. This is one part of the list.
assay: Acumen qHTS Assay for Inhibitors of the mTORC1 Signaling Pathway in MEF (Tsc2-/-, p53-/-) Cells: Sytravon; conditions: phospho-rpS6 immunofluorescence/PI, 24 h; series mostly up to 38.3 µM; activity change, negative = inhibition: at the top concentration;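 further: plate controls were DMSO for no effect and rapamycin for full effect; nearly all actives have a fitted effect of over 50% in size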
Method in brief: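 Tsc2-/-, p53-/- MEFs (empty-vector stable line) in DMEM + 10% FBS were treated with compounds 24 h at 37 degree Celsius, fixed, and immunostained for phospho-rpS6 (Alexa-488) with propidium iodide counterstain. Laser-scanning cytometry gave % positive cells, normalized against 7.5 nM rapamycin and DMSO.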

Activity change, negative = inhibition, inactive:
Fc1ccc(NCc2ccccc2-c2nnc(-c3ccccc3Cl)o2)cc1Cl -29.2%
Cc1cccc2cc(-c3nc(-c4cccs4)no3)c(=O)oc12 -5.61%
Cc1sc2ncn(CC(=O)N3CCN(c4cccc(Cl)c4)CC3)c(=O)c2c1S(=O)(=O)N1CCC(C)CC1 0%
CCOc1ccc(C(c2c(O)cc(C)n(CCOC)c2=O)N2CCN(c3ccc(F)cc3)CC2)cc1 (stereo not given) -1.23%
CCOc1ccc(-n2c(=O)c3c(C)c(C)sc3n(Cc3ccc(C(C)(C)C)cc3)c2=O)cc1 -10.3%
CC(=O)N1CCc2c(sc3c2c(=O)n(-c2cc(Cl)ccc2C)c(=O)n3C)C1 -2.8%
CCN(CC)C(=O)Cn1c(=O)n(CCCCCC(=O)NCc2ccc(C)cc2)c(=O)c2sccc21 -2.04%
CCCCNC(=O)Cn1nc(N2CCN(c3ccccc3OC)CC2)ccc1=O 4.21%
COc1ccc(Cl)cc1NC(=O)COc1cccc2c(=O)n(C)ccc12 -3.26%
COC(=O)c1ccc(NC(=O)CN(C)S(=O)(=O)c2ccc3c(c2)CCCC(=O)N3)cc1 -3.9%
COc1cccc(C(=O)N2CCc3cc(OC)c(OC)cc3C2COc2ccc3c(C)cc(=O)oc3c2)c1 (stereo not given) -5.77%
CCn1cc(S(=O)(=O)c2cc(C)cc(C)c2)c(=O)c2cc(F)c(N3CCN(c4ccccc4)CC3)cc21 -0.617%
CCCCN(C(=O)CCn1c(=O)oc2ccccc21)c1ccccc1 9.12%
COc1ccc(OCC(=O)N2CCN(C(=O)c3cccc(OC)c3OC)CC2)cc1 5.22%
CCOc1ccc(-c2cc(CCCC(=O)NCCc3ccc(SC)cc3)no2)cc1 -13.6%
COCCn1c(C)cc(O)c(C(c2ccccc2Cl)N2CCN(c3ccccc3)CC2)c1=O (stereo not given) 3.77%
CCN(CC)C(=O)c1sc2c(c1C)c(=O)n(Cc1ccccc1)c(=O)n2Cc1c(C)cc(C)cc1C -20.5%
O=C(NCC(c1ccco1)S(=O)(=O)c1cccs1)c1c(F)cccc1F (stereo not given) 2.46%
Cc1cccc(NC(=O)Cn2c(=O)n(CC3CCC(C(=O)NCCc4ccccc4)CC3)c(=O)c3ccccc32)c1C (stereo not given) -1.02%
CCOC(=O)c1ccc(NC(=O)c2c(NCc3ccc(OC)c(OC)c3OC)sc3c2CCC(C)C3)cc1 (stereo not given) -0.196%
O=C(NCC(c1cccnc1)N1CCc2ccccc21)c1cccc(F)c1 (stereo not given) -0.225%
Cc1nn(-c2ccc(N3CCCC3)nn2)c(C)c1CCC(=O)N1CCN(c2ccc(F)cc2)CC1 -5.79%
Cc1ccc(NS(=O)(=O)c2ccc3[nH]c4c(c3c2)CCCCCC4)cc1C -14.5%
CCOc1ccccc1CNC(=O)CCCn1c(=O)c2cccn2c2ccc(F)cc21 7.52%
Cc1ccc(CNC(=O)c2cc(NS(=O)(=O)c3ccc(C)cc3)ccn2)cc1 0.971%

Reference: PubChem BioAssay AID493208 (National Center for Advancing Translational Sciences (NCATS), 2011)
